From ChEMBL document CHEMBL4888484, “Replenishing the malaria drug discovery pipeline: Screening and hit evaluation of the MMV Hit Generation Library 1 (HGL1) against asexual blood stage Plasmodium falciparum ,using a nano luciferase reporter read-out” (2022)
In all, about 150,000 compounds went through this assay and about 540 (0.36%) showed an effect of 50% or more. Some of the results follow.

system: Plasmodium falciparum; assay: Primary screen in NF54 nanoGlo assay, in single point, at 2uM, 72h; a lower Z score goes with more inhibition; assay type: functional, Erythrocyte; conditions: timepoint 72 hour

| Structure (SMILES) | % Inhibition [%] | Z score |
| --- | --- | --- |
| C[C@@H](CCN(C)C)NC(=O)Nc1ccc(C(F)(F)F)nn1 | -5 | 0.61 |
| Cc1noc(-c2cc(=O)[nH]c3ccccc23)n1 | 30 | -4.02 |
| C=CCOc1ccccc1CN1CC[C@H]2[C@H](CCC(=O)N2Cc2ccc(C(F)(F)F)cc2)C1 | -8 | 1.55 |
| Cc1cnc(C2CCC2)n1C[C@H]1CCCN(C(=O)c2cccn2C)C1 | -5 | 0.91 |
| CN(Cc1cc(-c2ccccc2)[nH]n1)C(=O)c1cc(C2CC2)[nH]n1 | -11 | 2.09 |
| CCOC1CC(Nc2nc(N)c3cnn(C)c3n2)C12CCCC2 (stereo not drawn) | -9 | 0.8 |
| Cc1cc(C(=O)CN(C)Cc2nccn2CC(F)(F)F)c(C)[nH]1 | -4 | 0.57 |
| Oc1cc(CCc2nc([C@H]3CCOC3)n[nH]2)on1 | -4 | 0.78 |
| Cc1ccc(C2CN(C3CCN(C)C3=O)CCO2)c(C)c1 (stereo not drawn) | -3 | 0.42 |
| O=S(=O)(CCC(F)(F)F)N1CCc2sc(Cl)cc2C1 | -8 | 0.98 |
| Cc1nc(C(C)C)sc1[C@H](C)NCC(C)(C)C1(O)CCOCC1 | -6 | 0.86 |
| O=C(NC[C@H]1CCCO1)c1csc(-c2ccc(OCc3cccc(F)c3)cc2Cl)n1 | -9 | 1.05 |
| COc1ccc(CC(=O)N(c2ccccc2)c2ccccc2)cc1 | 27 | -3.77 |
| C[C@H]1Cc2cccc(F)c2N(Cc2cn(C)nn2)C1 | -16 | 1.65 |
| O=C(Nc1ccc(OC(F)(F)Cl)cc1)NS(=O)(=O)Oc1ccccc1Cl | 0 | -0.03 |
| COc1cccc(CNC(=O)COc2nc(C)nc3onc(-c4ccc(F)cc4)c23)c1 | -1 | 0.17 |
| CC[C@@H](c1ccncc1)n1ccnc1-c1cc(OC)c2c(c1)OCO2 | -21 | 2.73 |
| CC[C@H]1OCC[C@@H]1NC(=O)NCC1CCCn2ccnc21 (stereo partly drawn) | 1 | -0.16 |
| C[C@H]1CS(=O)(=O)CCN1C(=O)NCc1ccc(C2CCCCC2)cc1 | -10 | 1.44 |
| Cc1nc2ccc(NCCn3c(C)nc4ccccc43)nn2n1 | -2 | 0.38 |
| CN(Cc1cncn1C)[C@@H](C(=O)O)c1cccc(Br)c1 | -2 | 0.46 |

| Structure (SMILES) | % Inhibition [%] | Z score |
| --- | --- | --- |
| CN(C)CC1CCN(c2ccc(NC(=O)C3=COCCC3)cc2)CC1 | -8 | 0.71 |
| CO[C@@H](CS(=O)(=O)Nc1ccc(CO)cc1)C1CCCC1 | -17 | 2.24 |
| COCCC(=O)N1CC[C@@H]2OCc3cccc(c3)Oc3ccc(cc3)CCC(=O)N(CCCO)CC(=O)N[C@H]2C1 | -22 | 2.85 |
| O=C(CN1CCOCC1)Nc1ccccc1C(=O)Nc1ccc(Cl)cc1 | -18 | 2.39 |
| Cn1cc(C(N)=O)cc1C(=O)NC[C@@H]1C[C@H]1c1ccccc1 | 1 | -0.12 |
| CCCCC(=O)N1CCN(c2ccc(=O)n(-c3cccc(Cl)c3)n2)CC1 | -11 | 1.92 |
| Cc1ccc(C)c(CN2CCCN(c3ccc(C)cc3NS(=O)(=O)c3cccc(Cl)c3)C2=O)c1 | -8 | 0.97 |
| CC(=O)N[C@H]1C[C@H](c2nnc(CN3CCN(c4ncccn4)CC3)n2C)C1 | -11 | 1.8 |
| O=C1NCCOCCN(S(=O)(=O)c2ccc3c(c2)CCC3)[C@H]2CCC[C@@H]12 | -2 | 0.22 |
| CCC(C)(C)C(=O)Nc1cc(C)[nH]c(=O)n1 | -5 | 0.7 |
| O=C1CCCC1C1COCCN1C(=O)c1cnn2ccccc12 (stereo not drawn) | -6 | 0.85 |
| Cc1cc(O)nc([C@H](C)N2CCN(C(=O)c3ccccc3OC(F)F)CC2)n1 | 2 | -0.34 |
| Cc1cc(N2CCCC2)nc(CNC(=O)c2ccccc2)n1 | -11 | 1.76 |
| C#CCN(C)S(=O)(=O)CC1CCC1 | -8 | 0.75 |
| CC(C#N)CN(C)c1ncc(C#N)c(N(C)CC(C)C#N)n1 (stereo not drawn) | 7 | -1.36 |
| CN(Cc1cc(Cl)cc(Cl)c1)Cc1nnc2n1CCCCC2 | -10 | 1.19 |
| Cc1ccc(CCC(=O)NC(C)(C)C)c(C)c1 | -4 | 0.84 |
| CCCc1noc(CN(CC)[C@@H](C)COC)n1 | -8 | 0.81 |
| CC(C)c1nc(CN(C)C(=O)c2cn3cccnc3n2)no1 | -22 | 1.99 |
| CCNC(=O)c1ccc(N[C@@H]2c3ccccc3C[C@@H]2O)nc1 | -9 | 1.37 |
| Cc1ccccc1CNC(=O)Cn1c(C)cc(-c2nnc(-c3ccc(F)cc3)o2)c1C | -24 | 4.67 |

| Structure (SMILES) | % Inhibition [%] | Z score |
| --- | --- | --- |
| COc1ccc(N2CCN(C(=O)Nc3snnc3C(=O)N3CCOCC3)CC2)cc1 | -4 | 0.48 |
| COc1cc(C)ccc1C(=O)N[C@H]1CCCNC1=O | 1 | -0.19 |
| NC1CC(NC(=O)c2ccc(C3CCOCC3)cc2)C12CCC2 (stereo not drawn) | -2 | 0.47 |
| CCOC(=O)C[n+]1cc(-c2ccc3ccccc3n2)cc2ccccc21 | 5 | -0.74 |
| Cc1ccc(S(=O)(=O)CC(=O)Nc2ccccc2-c2nc3ccccc3s2)cc1 | -12 | 2.29 |
| CC(C)C(NC(=O)C1CCCCC1C)C(=O)O (stereo not drawn) | -5 | 0.58 |
| O=S(=O)(c1cc(-c2nc(-c3ccc(Cl)cc3)no2)cs1)N1CCc2ccccc21 | -5 | 0.63 |
| CC(C)N1CCC(CC(=O)N[C@H](C(=O)O)c2cccc(F)c2F)CC1 | -21 | 1.93 |
| O=C(Cn1nccn1)NCC[C@H]1CCCOC1 | -9 | 1.62 |
| CC1CN(CC(=O)c2c[nH]c(C(=O)N3CCCC3)c2)C(C)CO1 (stereo not drawn) | -5 | 0.64 |
| O=C(CCc1cncs1)NC1C2CC1N(CCOCc1ccccc1)C2 (stereo not drawn) | 1 | -0.16 |
| CNC(=O)NC1CN(c2nc3cc(Br)ccc3o2)C1 | -4 | 0.67 |
| O=C(COc1cccc(-c2noc(-c3ccco3)n2)c1)NCc1ccccc1 | 0 | 0.02 |
| CN(Cc1ccnn1C)C(=O)NC[C@H]1CC[C@@H](CO)O1 | -9 | 1.56 |
| O=C([C@@H]1CC=CCC1)N1CCC(N2C(=O)COC2=O)CC1 | -10 | 1.84 |
| CCCCCC(=O)N1CCC(N(CC)S(C)(=O)=O)CC1 | -3 | 0.44 |
| CCOC1CC(NC(=O)[C@H]2CCC(=O)N2)C1(CC)CC (stereo partly drawn) | -9 | 1.76 |
| COC(=O)c1cc(C)nc2c1c(=O)n(CC(=O)Nc1ccccc1C)c(=O)n2-c1ccccc1 | 0 | 0.05 |
| CCN(CC)c1onc(-c2ccccc2)c1CN(Cc1ccccc1)C(=O)CC(C)C | -4 | 0.51 |
| CC(=O)N(C)c1ccc2c(c1)NC(=O)C[C@@H]2c1cc(C)ccc1F | -8 | 1.33 |
| COc1ccc(NC(=O)Nc2c(-c3ccccc3)nn(-c3ccccc3Cl)c2N)cc1 | 3 | -0.41 |

| Structure (SMILES) | % Inhibition [%] | Z score |
| --- | --- | --- |
| CC(C)(C)OC(=O)[C@@]12CCC[C@H]1CN(CCn1ccnc1)C2 | -16 | 2.29 |
| Cc1ccc(NC(=O)N(C)C)cc1NC(=O)C(C)(C)N1CCOCC1 | -4 | 0.66 |
| Cc1nn(C)c2nc(N[C@H]3CCN(C)C3=O)sc12 | 0 | 0.04 |
| COc1nsc(CN[C@H]2Cc3ccccc3[C@H]2OC)c1Cl | -7 | 1.25 |
| Cc1noc(NC(=O)CC2CC3CCC2C3)n1 (stereo not drawn) | 13 | -1.12 |
| O=C(c1ccc(CN2CCOCC2)cc1)N1CCN(S(=O)(=O)c2ccccc2)CC1 | -10 | 1.56 |
| C[C@H](C(=O)N1CCN(C)CC1)C1CC[C@@]2(C)Cc3sc(CS(=O)(=O)c4ccc(Cl)cc4)nc3[C@@H](C)[C@@H]2[C@H]1O (stereo partly drawn) | -6 | 0.86 |
| CNC(=O)C1=CCN(C(=O)c2cc(C)cc(C)c2)CC1 | -8 | 1.35 |
| CCn1nc(C)c(Cn2ccnc2-c2nc3ccccc3[nH]2)c1C | 4 | -0.7 |
| CCCNC(=O)c1ccc(N2CC[S+]([O-])CC2)nc1 | -9 | 1.68 |
| Cc1cc(NC(=O)CN2CCc3cncnc3C2)n(C)n1 | 0 | 0.08 |
| O=C(NCc1cc(F)c(Cl)cc1F)N1CC(N2CCCC2=O)C1 | -6 | 0.8 |
| NS(=O)(=O)Cc1ncsc1Br | -10 | 1.45 |
| CCCCn1c(N)c(N(C(=O)COc2ccccc2-c2ccccc2)C2CCCC2)c(=O)[nH]c1=O | -8 | 1.51 |
| Cc1nnc(NC(c2cnc3ccccc3c2)[C@H]2C[C@@H](O)C2)s1 (stereo partly drawn) | 35 | -1.08 |
| CC[C@@]1(O)COC2(CN(C(=O)c3ccc(OC)cc3OC)C2)C1 | 4 | -0.6 |
| COc1ccc(F)c(C(=O)N[C@H]2CC[C@@H]3CCC[C@@H]32)c1F | -10 | 1.55 |
| Cc1ccc(C[C@H](C)NS(=O)(=O)N(C)CCC#N)c(C)c1 | 4 | -0.57 |
| Cc1cc(NC(=O)N2CCN(c3ccccc3)C(=O)[C@@H]2C)n(CC(C)C)n1 | -6 | 1.21 |
| CC1CCC(C(C)C)C(OCC(=O)N2CCN(c3cccc(F)c3C#N)CC2)C1 (stereo not drawn) | -17 | 3.4 |
| COc1ccccc1Cn1c(C)cc(=O)c(C(=O)N2CCN(c3cccc(Cl)c3)CC2)c1C1CC1 | -11 | 1.27 |
